Laboratory results from PubChem BioAssay AID588342 (National Center for Advancing Translational Sciences (NCATS), 2011).
The campaign covered roughly 360,000 compounds. About 25,000 (6.9%) were called active. The shares of active, inactive and inconclusive entries below differ from those in the screen. The call rests on the fitted dose curve; in most records, active means well fitted inhibition curve with a large enough effect; inconclusive means small, poorly fitted or top-dose-only effect; inactive means flat fitted curve, though single readings scatter. Potencies beside an inconclusive call are fits to weak or partial responses and may not hold up.
Further: nearly all actives have a fitted effect of over 55% in size.
Tags describe the fitted curve by direction and shape.

The molecules below were run against Luciferin 4-monooxygenase (Photinus pyralis) (UniProt P08659) (assay: qHTS profiling assay for firefly luciferase inhibitor/activator using purifed enzyme and Km concentrations of substrates (counterscreen for miR-21 project)). Details: purified FLuc, luminescence inhibition; series mostly up to 57.5 µM.
Chain of UniProt P08659 (P08659 whole entry, looked up): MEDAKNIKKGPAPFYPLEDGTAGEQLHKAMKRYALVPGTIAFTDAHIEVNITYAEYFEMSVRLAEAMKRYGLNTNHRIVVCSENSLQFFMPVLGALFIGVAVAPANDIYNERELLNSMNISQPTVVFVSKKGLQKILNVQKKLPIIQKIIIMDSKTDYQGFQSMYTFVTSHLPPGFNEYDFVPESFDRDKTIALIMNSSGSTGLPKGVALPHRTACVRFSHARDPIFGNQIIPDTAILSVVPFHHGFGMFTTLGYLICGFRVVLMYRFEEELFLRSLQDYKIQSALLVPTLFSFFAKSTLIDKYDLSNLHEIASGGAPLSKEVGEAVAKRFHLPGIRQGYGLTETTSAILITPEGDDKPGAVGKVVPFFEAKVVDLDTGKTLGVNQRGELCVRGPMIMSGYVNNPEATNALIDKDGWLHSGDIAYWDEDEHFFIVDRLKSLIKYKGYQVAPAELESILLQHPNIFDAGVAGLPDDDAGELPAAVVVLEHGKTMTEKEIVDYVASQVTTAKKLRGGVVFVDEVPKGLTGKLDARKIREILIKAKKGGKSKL
Excerpt: MLPCN Grant: 1 R21 NS059478-01 (miR-21 grant) Assay Provider: NCGC NCGC Assay Overview: Firefly (Photinus pyralis) luciferase is one of the most commonly used transcriptional reporters for a number of reasons. It is considered one of the more dynamically responsive reporters -that is, responsive to changes in reporter transcription - as it requires no post-translational modifications and is enzymatically active directly after protein synthesis (Wood, 1998). Additionally, the half-life of the luciferase protein is short relative to other reporter-gene products (Wood, 1995). Whereas reporters with long half-lives potentially allow for increased signal due to accumulation of reporter-gene product, once accumulated in the cell, dynamic changes in reporter-gene expression may be difficult to detect(Fan and Wood, 2007; Almond et al., 2004). It has been shown that wild-type P. pyralis luciferase has a half-life of approximately […] hours in mammalian cells (Thompson et al., 1991). Firefly luciferase reporter-gene assays are also generally considered one of the most sensitive assay types (Wood, 1995; Wood, 1998). Although light produced in a bioluminescence reaction is of lower intensity than that produced during fluorescence emission, this is offset by little to no background light inherent to luminescent assays. Thus the luciferase reporter can be expressed at much lower levels than fluorescent proteins while still providing robust signal. # However, it was initially observed, in 1991, by Thompson et al., that compounds that resemble the substrates of firefly luciferase (FLuc) can act as competitive inhibitors of the enzyme, and that these compounds, upon interaction with luciferase in the cell, can actually stabilize the protein and increase its half-life. Accumulated intracellular FLuc protein can be measured as an increase in luminescence signal, upon addition of detection reagents (which contain high concentrations of FLuc substrates) commonly used in high-throughput screening. In cell-based reporter gene assays that use FLuc as the reporter gene to quantitate the potential influence of a given compound against the target biology, this apparent increase in luminescence can mistakenly be interpreted as identification of a compound that is active against the target of interest. This is the case for the miR-21 FLuc reporter gene assay used to identify inhibitors of the miR-21 pathway (PubChem AID 2289) - compounds of interest will inhibit miR-21 biogenesis/expression or activity, and are identified by causing an increase in luminescence, due to increased FLuc translation. However, FLuc inhibitory compounds that stabilize the FLuc protein will give an identical read-out, making it difficult to distinguish compounds that are active against the target from those active against FLuc. Previous profiling work to determine the prevalence of compounds that affect FLuc enzymatic activity (PubChem AID 411) identified that ~3% of the MLSMR library (then at ~72K) inhibited FLuc. […] Since the MLSMR had grown to ~350K compounds, and since it was expected that a significant percentage of compounds found active in the miR-21 FLuc assay would be FLuc inhibitors, the library was screened for activity against FLuc using a biochemical assay of purified FLuc and KM concentrations of FLuc substrates (D-luciferin and ATP).
NCGC Assay Protocol Summary: Reagents: 50mM Tris acetate, pH 7.5; 10mM Mg acetate; 10uM D-luciferin (Sigma #L9504); 10uM ATP; 0.01% Tween-20; 0.05% BSA; 10nM P. pyralis luciferase (Sigma #L9506) Control compounds used were two known firefly luciferase inhibitors (compounds (2) and (5) in Auld et al., 2010), and DMSO. […]
`CCOc1cc(Cn2c(-c3ccc(O)c(OCC)c3)nc3ccccc32)ccc1O` was tested, and the Potency was inconclusive: 37.9 µM [inhibitor, partial curve, poor fit]. For `C=CS(=O)c1sc(Cl)c(N2CCOCC2)c1[N+](=O)[O-]` (stereo unspecified), the Potency was inconclusive: 12 µM [inhibitor, partial curve, poor fit]. With `Cc1ccc(SCc2c(C#N)c3ccccc3n2C)cc1` the Potency was inconclusive: 26.9 µM [inhibitor, partial curve, poor fit]. For `O=C1[C@@H]2C(Cc3ccc(O)cc3)NC3(C(=O)Nc4ccc(F)cc43)[C@@H]2C(=O)N1c1ccccc1` (stereo partly specified), the Potency was inconclusive: 26.9 µM [inhibitor, partial curve, poor fit]. In the case of `O=C(SCC(O)C(O)CS)c1cccs1` (stereo unspecified), the Potency is reported as “inactive”. `CC(=O)c1ccc(NC(=O)c2sc(-n3nc(C)c(CCC(C)C)c3C)nc2C)cc1` was tested, and the Potency was “inactive”. With `Cc1nc2c3cccnc3nn2c(C)c1CCC(=O)NCc1ccccc1Cl` the Potency was “inactive”. For `CCCOc1cccc(C(=O)Nc2cc(-c3nc4ccccc4[nH]3)ccc2C)c1`, the Potency was inconclusive: 8.49 µM [inhibitor, partial curve]. `COc1cccc(CN(C)C(=O)CNC(=O)c2sc3ccccc3c2Cl)c1OC` was tested, and the Potency was inconclusive: 37.9 µM [inhibitor, partial curve, poor fit]. For `CN(C(=O)c1ccc(NC(=O)c2ccco2)cc1)c1ccccc1`, the Potency was active: 16.9 µM. In the case of `COc1ccc(-c2cc(-c3nnc(COC(=O)c4ccc(O)cc4)o3)c3ccccc3n2)cc1OC`, the Potency is reported as inconclusive: 19 µM [inhibitor, single point]. In the case of `CCCC(=O)Nc1nc(-c2ccc(Cl)s2)cs1`, the Potency is reported as inconclusive: 9.53 µM [inhibitor, partial curve, poor fit]. With `COc1cc(OC)c(NC(=O)c2sc3nc4n(c(=O)c3c2C)CCCC4)cc1Cl` the Potency was inconclusive: 9.53 µM [inhibitor, partial curve]. For `Cc1ccc2[nH]c3c(N4CCOCC4)ncnc3c2c1`, the Potency was active: 16.9 µM. With `CC(=O)Nc1ccc(-c2csc(NC(=O)c3ccc(C)o3)n2)cc1` the Potency was inconclusive: 23.9 µM [inhibitor, partial curve]. For `COc1ccc2nc(NC(=O)C3CCCN(S(=O)(=O)c4cccs4)C3)sc2c1` (stereo unspecified), the Potency was inconclusive: 12 µM [inhibitor, partial curve, poor fit]. In the case of `CC(=O)Nc1ccc(-c2csc(NCc3ccco3)n2)cc1`, the Potency is reported as active: 7.57 µM. For `Cc1ccccc1NC(=O)Nc1csc2c1CCCC2`, the Potency was inconclusive: 9.53 µM [inhibitor, partial curve]. `O=C(Nc1ccccn1)c1ccc(Br)s1` was tested, and the Potency was active: 10.7 µM. In the case of `CCC(=O)c1ccc(OCC(=O)OCC(=O)NCC2CCCO2)cc1` (stereo unspecified), the Potency is reported as inconclusive: 37.9 µM [inhibitor, partial curve, poor fit]. With `COC(=O)c1cc2oc3ccccc3c2n1CC(=O)Nc1cccc(SC)c1` the Potency was “inactive”. With `O=C(COC(=O)CNC(=O)c1ccc(Cl)cc1Cl)Nc1cccc(S(=O)(=O)N2CCCC2)c1` the Potency was “inactive”. With `CC(=O)NCCC1CCCCN1C(=O)c1cc(COc2cc(C)ccc2C)on1` (stereo unspecified) the Potency was active: 16.9 µM. `COc1cccc(NC(=O)CSc2nnc(NC(=O)C3CC3)s2)c1` was tested, and the Potency was “inactive”. For `COc1cc(OC)c(NC(=O)Cc2c(C(=O)O)c(C)cn2C)cc1Cl`, the Potency was inconclusive: 21.3 µM [inhibitor, partial curve, poor fit]. For `COc1ccc(C=Nc2cccnc2N)cc1`, the Potency was active: 10.7 µM. `CCCn1nnc(NC(=O)c2ccc([N+](=O)[O-])cc2Cl)n1` was tested, and the Potency was inconclusive: 37.9 µM [inhibitor, partial curve, poor fit]. For `O=C(O)c1ccc(COc2ccc3c4c(c(=O)oc3c2)CCC4)o1`, the Potency was inconclusive: 10.7 µM [inhibitor, partial curve, poor fit]. In the case of `CC(C)(C)C1CCc2nc(NC(=O)c3cccc(Cl)c3)sc2C1` (stereo unspecified), the Potency is reported as inconclusive: 21.3 µM [inhibitor, partial curve]. In the case of `O=c1[nH]c(SCc2ccccc2)nc2c1CCCC2`, the Potency is reported as inconclusive: 16.9 µM [inhibitor, partial curve]. `O=c1cc(-c2ccccc2)nc2nc(CCc3ccccc3)[nH]n12` was tested, and the Potency was inconclusive: 33.8 µM [inhibitor, single point]. With `COc1cc(OC)c(NC(=O)NCCn2nnc3cc(S(=O)(=O)N(C)C)ccc32)cc1Cl` the Potency was “inactive”. With `CC(C)NC1=C(Cl)C(=O)c2ccccc2C1=O` the Potency was inconclusive: 37.9 µM [inhibitor, partial curve, poor fit]. For `O=C(COC(=O)c1ccco1)Nc1ccc([N+](=O)[O-])cc1Cl`, the Potency was “inactive”. `CCN(C(=O)COC(=O)c1ccc(C)c(S(=O)(=O)N2CCCCC2)c1)C1CCS(=O)(=O)C1` (stereo unspecified) was tested, and the Potency was “inactive”. `COc1cccc(/C=C2\Oc3cc(OCC(=O)N4CCC[C@H]4C(=O)O)ccc3C2=O)c1` was tested, and the Potency was active: 2.69 µM.
